The source gives no read counts; variants with many changes may rest on few reads.
B1: CPEB3 Ribozyme (parent)
chain: UAACAGGGGGCCACAGCAGAAGCGUUCACGUCGCAGCCCCUGUCAGAUUCUGGUGAAUCUGCGAAUUCUGCUGUAUAUCUC

Variants of: B1
Experiment: self-cleavage, relative activity (ratio to wild type); higher = more cleavage; in vitro, sequencing
In short: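 After error-prone PCR and barcoding, CPEB3 ribozyme mutant libraries were transcribed with T7 RNA polymerase at 37°C for 5 hours, then given 15 min with DNase I before an EDTA stop, and they cleaved during both steps. Reverse transcription with template switching preceded Illumina sequencing. Relative activity divides a variant's cleaved/total read fraction by the unmutated ribozyme's. At least 5 reads were required per variant, and three batches were averaged.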
For C17U U31C U72G, the self-cleavage was 0.34. Work on C17U U41A U67G C68A yielded a self-cleavage of 0.12. C17U U41C G46U A56G showed a self-cleavage of 0.11. Work on C17U U41C U43A yielded a self-cleavage of 0.51. In the case of C17U U41G A45C A56G, the self-cleavage is reported as 0.06. C17U U43C U51C U72C showed a self-cleavage of 0.31. C17U U69A U78C showed a self-cleavage of 0.26. With C17U U76C A77G the self-cleavage was 0.96. With A18C A20G U31A U49C U58C U72A the self-cleavage was 0.15. In the case of A18C A21G G33A U48C U49C C62U, the self-cleavage is reported as 0.03. In the case of A18C A21U U31C U74C A77G, the self-cleavage is reported as 0.21. Variant A18C A28U A35G C39G U43C has a self-cleavage of 0.04. In the case of A18C A35G U43C, the self-cleavage is reported as 0.4. With A18C A45G U58C the self-cleavage was 0.19. Variant A18C C29U C39A A45U U58A has a self-cleavage of 0.08. A18C C40U G55C gave a self-cleavage of 0.14. A18C G33C G53U A75G gave a self-cleavage of 0.12. A18C G42A U72C C79U gave a self-cleavage of 0.46. Variant A18C G46A U60C A64U has a self-cleavage of 0.21. A18C U25A U43C U51G showed a self-cleavage of 0.09. For A18C U25C A35G U51A, the self-cleavage was 0.4. A18C U25C U31A U66A gave a self-cleavage of 0.12. In the case of A18C U26C A28U, the self-cleavage is reported as 0.19. Work on A18C U26C G42A yielded a self-cleavage of 0.21. For A18C U41C C81U, the self-cleavage was 0.4. A18C U41C U43C U51C A56G gave a self-cleavage of 0.11. With A18C U43C C44U U48C U78C the self-cleavage was 0.01. For A18C U48A U60C, the self-cleavage was 0.08. A18C U49A U60A U72C showed a self-cleavage of 0.12. Work on A18C U49C C71A yielded a self-cleavage of 0.03. In the case of A18C U67C U72G G73U, the self-cleavage is reported as 0.2. A18G A20C C39U U67C U78A gave a self-cleavage of 0.05. In the case of A18G A20C G73A, the self-cleavage is reported as 0.49. In the case of A18G A20C U26C A64G, the self-cleavage is reported as 0.03. Work on A18G A20G A21G U69A U78C yielded a self-cleavage of 0.18. Work on A18G A20G A35G U80C yielded a self-cleavage of 0.5. For A18G A20G A45G U49A A56G, the self-cleavage was 0.23. Variant A18G A20G A47G U49C A56G has a self-cleavage of 0.62. Variant A18G A20G C44A U51G C59A has a self-cleavage of 0.03. Work on A18G A20G G52C U78C yielded a self-cleavage of 0.21. In the case of A18G A20G U25A, the self-cleavage is reported as 0.36. A18G A20G U25C U41A U60A A77U gave a self-cleavage of 0.23. A18G A20G U25C U43A U72A U74C showed a self-cleavage of 0.91. A18G A20G U26A A45C A57G A65G showed a self-cleavage of 0.06. For A18G A20G U31C, the self-cleavage was 0.27. In the case of A18G A20G U48C U80A, the self-cleavage is reported as 0.12. A18G A20G U49C showed a self-cleavage of 0.36. For A18G A20G U51A, the self-cleavage was 0.32. A18G A20U A28G U31A A35U G61C showed a self-cleavage of 0.15. A18G A20U A35U showed a self-cleavage of 0.28. With A18G A20U C34U A45G the self-cleavage was 0.06. A18G A20U C38U A75G gave a self-cleavage of 0.07. Work on A18G A20U U26C U41A C62U A64G yielded a self-cleavage of 0.31. A18G A20U U58C U67C U72C gave a self-cleavage of 0.19. In the case of A18G A21G A28G U60C U76A U80A, the self-cleavage is reported as 0.04. In the case of A18G A21G A28U, the self-cleavage is reported as 0.12. A18G A21G A35G C39U U60C U80C showed a self-cleavage of 0.32. For A18G A21G A45U U48C G63U U78C, the self-cleavage was 0.04. For A18G A21G A47G U49A, the self-cleavage was 0.35. Variant A18G A21G A47U has a self-cleavage of 0.05. A18G A21G A56U A64U U76A showed a self-cleavage of 0.38. In the case of A18G A21G C23U C38G G42A U54A U69C, the self-cleavage is reported as 0.05. With A18G A21G G22A the self-cleavage was 0.39. A18G A21G G33A U41A gave a self-cleavage of 0.29. A18G A21G G63A showed a self-cleavage of 0.42. In the case of A18G A21G U25C, the self-cleavage is reported as 0.45. With A18G A21G U26A A45C U80C the self-cleavage was 0.09. In the case of A18G A21G U26A A56G U72A, the self-cleavage is reported as 0.06. Work on A18G A21G U26C A28U U67C yielded a self-cleavage of 0.13. A18G A21G U31C A45U C59A U78A gave a self-cleavage of 0.03. A18G A21G U48C A64G showed a self-cleavage of 0.05. A18G A21G U51G U80C gave a self-cleavage of 0.72. For A18G A21G U58C U67A, the self-cleavage was 0.17. Variant A18G A21G U78C has a self-cleavage of 0.51. A18G A28C U54C A75U showed a self-cleavage of 0.18. A18G A28C U66C gave a self-cleavage of 0.08. A18G A28G A45U U67C gave a self-cleavage of 0.11. A18G A28G A47G gave a self-cleavage of 0.19. Variant A18G A28G C38A A45U has a self-cleavage of 0.13. A18G A28G C40U U51C gave a self-cleavage of 0.17. Work on A18G A28G C44A A45G U54A A57C A77G yielded a self-cleavage of 0.03. With A18G A28G G46U the self-cleavage was 0.15. For A18G A28G U31C U49C C71U, the self-cleavage was 0.07. A18G A28G U41A A45G U51A gave a self-cleavage of 0.16.
